{
  "source": "the supplement of paper PMC10338343",
  "note": "± gives the standard deviation. In all, about 5,500 sequences were measured (“pre-steady-state target cleavage rate”: median about 0.1, highest 2% from about 0.64 on). The entries are a selection whose mix differs from that of the whole data set.",
  "data": [
    {"tested_on": "MIWI (PIWIL1) piRISC loaded with piRNA #2 (30 nt)", "test": "pre-steady-state target cleavage rate (min^-1); MIWI and MILI are mouse PIWI proteins and EfPiwi is from a freshwater sponge; tags in brackets are library labels; higher = faster piRNA-guided slicing of the target", "settings": "guide: piRNA #2 5'p-UUAGGUAACCCAGUAGAUCCAGAGGAAUUC; auxiliary factor: 500 nM mouse GTSF1", "method_in_brief": "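A burst-and-steady-state fit was used to obtain the pre-steady-state cleavage rate. The input data were sequencing reads of uncleaved targets, normalised to depth and to weakly complementary targets, from a […] transcribed, DNA-blocked target RNA library mixed with 1 nM active affinity-purified piRISC holding one synthetic guide, with or without 500 nM GTSF1 partner protein, in HEPES–potassium acetate buffer at 33 °C for 0–8 or 0–960 min. Three trials were pooled and k3 was capped at 0.0001 min^-1.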", "values": [
      {"sequence": "GAAUUCCUUGGAUCUACUGGGUUACCUAA", "pre-steady-state target cleavage rate": "0.597 ± 0.05"},
      {"sequence": "CUUUUCGACUGGAUCUACUGGGUUACCUAA", "pre-steady-state target cleavage rate": "0.389 ± 0.052"},
      {"sequence": "CUUAUCCUCUCGAUCUACUGGCUUACCUAA", "pre-steady-state target cleavage rate": "0.175 ± 0.014"},
      {"sequence": "CUUAAGCUCUGGAUCUACUGGGUAUGCUAA", "pre-steady-state target cleavage rate": "0.0163 ± 0.0045"},
      {"sequence": "CUUAAGGUCUGCAUCUACUGCGUUACCUAA", "pre-steady-state target cleavage rate": "0.0618 ± 0.018"},
      {"sequence": "GAAUUCCUCAGGAACUACUGGGUUACCUAA", "pre-steady-state target cleavage rate": "0.301 ± 0.06"},
      {"sequence": "CUUAAGGACUGGAAUCUACUGGGUUACCUAA", "pre-steady-state target cleavage rate": "0.0272 ± 0.022"},
      {"sequence": "CUUAACCUCUGGAUCUACUGCGAUACCUAA", "pre-steady-state target cleavage rate": "0.125 ± 0.02"},
      {"sequence": "CUUAAGGAGUGGAACUACUGGGUUACGUAA", "pre-steady-state target cleavage rate": "0.099 ± 0.031"},
      {"sequence": "GAAUUCCUCUGGAUCUCCUGGGUUACCUAA", "pre-steady-state target cleavage rate": "0.237 ± 0.063"},
      {"sequence": "CUUAUCCUCUGGAUCUACUGGCUUACCUUA", "pre-steady-state target cleavage rate": "0.0614 ± 0.018"},
      {"sequence": "CUUAAGCUCUGAUCUACUGGGUUACCUAA", "pre-steady-state target cleavage rate": "0.0872 ± 0.01"},
      {"sequence": "CUUAACCUCAGGAUCUACUGGGUUACCUUA", "pre-steady-state target cleavage rate": "0.414 ± 0.059"},
      {"sequence": "CUUAUCCUCUAGAUCUACUGGGUUACCUAA", "pre-steady-state target cleavage rate": "0.5 ± 0.035"},
      {"sequence": "CUUAACCUCGGAUCUACUGGGUUACCUAA", "pre-steady-state target cleavage rate": "0.31 ± 0.063"},
      {"sequence": "CUUAAGCUCUGCUUCUACUGGGUUACCUAA", "pre-steady-state target cleavage rate": "0.226 ± 0.043"},
      {"sequence": "GAAUUCCUCUGGAUCUAGUCGGUUACCUAA", "pre-steady-state target cleavage rate": "0.0101 ± 0.0025"},
      {"sequence": "CUUUUCCUCACCAUCUACUGGGUUACCUAA", "pre-steady-state target cleavage rate": "0.278 ± 0.04"},
      {"sequence": "CUUAAGGUCUGGAUCUAGAGGGUUACCUAA", "pre-steady-state target cleavage rate": "0.0111 ± 0.0025"},
      {"sequence": "CUUUUCCUCUGGAUCUACUGGGUUAGCCUAA", "pre-steady-state target cleavage rate": "0.47 ± 0.049"},
      {"sequence": "CUUAAGGUGUGGAUCUUCUGGGUUACCUAA", "pre-steady-state target cleavage rate": "0.0144 ± 0.007"},
      {"sequence": "CUUAAGGAGACGAUCUACUGCGUUACCUAA", "pre-steady-state target cleavage rate": "0.00291 ± 0.0026"},
      {"sequence": "CUUUUCCUCAGGAACUACUGGGUUACCUAA", "pre-steady-state target cleavage rate": "0.327 ± 0.034"},
      {"sequence": "CUUAAGGAGUGGAUCUACUGCGUUACCUUA", "pre-steady-state target cleavage rate": "0.016 ± 0.0041"},
      {"sequence": "CUUAUCCUCUGGAUCUACUGGGUAACCUUA", "pre-steady-state target cleavage rate": "0.212 ± 0.059"},
      {"sequence": "CUUAAGGAGACCUAGUACUGGGCUUACCUAA", "pre-steady-state target cleavage rate": "< 0.0001"},
      {"sequence": "CUUAUCCUCUGAUCUACUGGGUUACCUAA", "pre-steady-state target cleavage rate": "0.236 ± 0.029"},
      {"sequence": "CUAUUCCUCUGGAUCUACUGGGUUACCUAU [g2:g28:cont:t1U]", "pre-steady-state target cleavage rate": "0.313 ± 0.04"},
      {"sequence": "CUUUUCCUCUGGUUCUACUGGGAUACCUAA", "pre-steady-state target cleavage rate": "0.0748 ± 0.021"},
      {"sequence": "CUUAAGGAGUGGAUCUACUGGGUUACGAUA", "pre-steady-state target cleavage rate": "0.0107 ± 0.0076"},
      {"sequence": "GAAUACCUCUGGAUCAACUGGGUUACCUAA", "pre-steady-state target cleavage rate": "0.169 ± 0.034"},
      {"sequence": "CUUAUCCUCUGGAUCACUGGGUUACCUAA", "pre-steady-state target cleavage rate": "0.0212 ± 0.0064"},
      {"sequence": "CUUAUCCUCUGGAUCUACUGCGUUACCUUA", "pre-steady-state target cleavage rate": "0.29 ± 0.042"},
      {"sequence": "CUUAAGGACUGGAUCUACACGGUUACCUAA", "pre-steady-state target cleavage rate": "0.0368 ± 0.018"},
      {"sequence": "CUAUUCCUCAGGAUCUUCUGGGUUACCUAA", "pre-steady-state target cleavage rate": "0.387 ± 0.052"},
      {"sequence": "CUUAUCCUCUGGAUCUACUGGGUUACCAUAA", "pre-steady-state target cleavage rate": "0.452 ± 0.06"},
      {"sequence": "CUUAAGGAGACCUUCUACUGAGUUACCUAA", "pre-steady-state target cleavage rate": "0.00528 ± 0.0031"},
      {"sequence": "CUUAUCCUCUGCAUCUACUCGGUUACCUAA", "pre-steady-state target cleavage rate": "0.0719 ± 0.013"},
      {"sequence": "CUUAAGGAGAGGAUCUACUGGGUUAUCCUAA", "pre-steady-state target cleavage rate": "0.00542 ± 0.0033"},
      {"sequence": "CUUAUCCUCUGGAUCUGCUGGGUUACCUAA", "pre-steady-state target cleavage rate": "0.425 ± 0.064"},
      {"sequence": "CUUAAGCUCUGGAUCUACUGGUUUACCUAA", "pre-steady-state target cleavage rate": "0.0992 ± 0.016"},
      {"sequence": "CUUAAGGUCUCGAUCUACUCGGUUACCUAA", "pre-steady-state target cleavage rate": "0.0432 ± 0.0073"},
      {"sequence": "CUUAAGGUCUGGAUCUACUGGUUACCUAA", "pre-steady-state target cleavage rate": "0.0114 ± 0.0052"},
      {"sequence": "CUUUUCCUCUCGAUCUACUGGGUUACCAAA", "pre-steady-state target cleavage rate": "0.64 ± 0.048"},
      {"sequence": "CUUAAGGACUCGAUCUACUGCGUUACCUAA", "pre-steady-state target cleavage rate": "0.0122 ± 0.0077"},
      {"sequence": "CUUAAGGAGUGGUUCUACUGGGUUACCUAA", "pre-steady-state target cleavage rate": "0.0735 ± 0.012"},
      {"sequence": "GAUUUCCUCUGGAUCUACAGGGUUACCUAA", "pre-steady-state target cleavage rate": "0.0988 ± 0.018"},
      {"sequence": "CUUAAGCUCUGGAUCUACUGGGUUAGCUUA", "pre-steady-state target cleavage rate": "0.042 ± 0.0072"},
      {"sequence": "GAAAUCCACUGGAUCUACUGGGUUACCUAA", "pre-steady-state target cleavage rate": "0.314 ± 0.036"},
      {"sequence": "GAGUUCCUCUGGAUCUACUGGGUUACCUAA", "pre-steady-state target cleavage rate": "0.208 ± 0.046"},
      {"sequence": "CAAAACCUCUGGAUCUACUGGGUUACCUAA", "pre-steady-state target cleavage rate": "0.205 ± 0.038"},
      {"sequence": "CUUAUGCUCUGGAUCUACUGGGUUACCAAA", "pre-steady-state target cleavage rate": "0.203 ± 0.021"},
      {"sequence": "GAAAUCCUCUGGAUCUACUGGGUUUCCUAA", "pre-steady-state target cleavage rate": "0.293 ± 0.058"},
      {"sequence": "CUAUUGCUCUGGAUCUACUGGGUUAGCUAA", "pre-steady-state target cleavage rate": "0.311 ± 0.05"},
      {"sequence": "CUUAAGGUCUGGAUCUACUGGGUUAGGUAA", "pre-steady-state target cleavage rate": "0.0168 ± 0.01"},
      {"sequence": "CUUAAGCUCUGGAUCUACUGGGAUACCUUA", "pre-steady-state target cleavage rate": "0.0617 ± 0.012"},
      {"sequence": "CUUUUCCUGUGGAUCUACUGGCUUACCUAA", "pre-steady-state target cleavage rate": "0.0557 ± 0.013"},
      {"sequence": "CUUAAGGACUGGAUCUACUGGGUUACCUA", "pre-steady-state target cleavage rate": "0.133 ± 0.048"},
      {"sequence": "CUUAACCUCUGGAUCUACUGCGUUACCAAA", "pre-steady-state target cleavage rate": "0.166 ± 0.029"},
      {"sequence": "CAAUUCCUCUGGAUCAACAGGGUUACCUAA", "pre-steady-state target cleavage rate": "0.221 ± 0.03"},
      {"sequence": "CUUAAGCUCUGGAUCUACUGGGUUUGGUAA", "pre-steady-state target cleavage rate": "0.0512 ± 0.013"},
      {"sequence": "CAAUUGCUCUGGAUCUACUGGGUUACCUUA", "pre-steady-state target cleavage rate": "0.212 ± 0.048"},
      {"sequence": "CAAUUGCUCUGGAUCUAGUGGGUUACCUAA", "pre-steady-state target cleavage rate": "0.0592 ± 0.0099"},
      {"sequence": "CUUAAGGAGUGGAUAUACUGGGUUACCUAA", "pre-steady-state target cleavage rate": "0.0512 ± 0.02"},
      {"sequence": "GAACUUCCUCUGGAUCUACUGGGUUACCUAA", "pre-steady-state target cleavage rate": "0.037 ± 0.02"},
      {"sequence": "GAAUUCCUCUGGAUCGACUGGGUUACCUAA", "pre-steady-state target cleavage rate": "0.295 ± 0.048"},
      {"sequence": "CUUUUCCUGUGGAUCUACUGGGUUACCUUA", "pre-steady-state target cleavage rate": "0.403 ± 0.049"},
      {"sequence": "CUAUUCCUCUGGAUCUACUGGGAUUACCUAA", "pre-steady-state target cleavage rate": "0.202 ± 0.041"},
      {"sequence": "GAAUUCCUCUGGAUCUACUGGGAUUCCUAA", "pre-steady-state target cleavage rate": "0.0604 ± 0.021"},
      {"sequence": "CUUAAGCUCUGGAUCUACUGCGUUACGUAA", "pre-steady-state target cleavage rate": "0.209 ± 0.023"},
      {"sequence": "CUUUUCGUCUGGAUCUACUGGGUUACCAAA", "pre-steady-state target cleavage rate": "0.239 ± 0.045"},
      {"sequence": "CUUAAGGAGUGGAUCUACUGGGUGACCUAA", "pre-steady-state target cleavage rate": "0.0213 ± 0.0095"}
    ]}
  ]
}
